In PubChem BioAssay AID540317 (National Center for Advancing Translational Sciences (NCATS), 2011):
In all, about 390,000 compounds went through this assay and about 2,200 (0.56%) were called active. Inconclusive means that the source gave no clear call. Such entries were picked first, then a sample of the others. The call rests on the fitted dose curve; in most records, active means well fitted inhibition curve with a large enough effect; inconclusive means small, poorly fitted or top-dose-only effect; inactive means no such curve, though single readings can be large or run the other way. A potency beside an inconclusive call is a rough fit, not a confirmed value.

Target: Chromobox protein homolog 1 (Homo sapiens) (UniProt P83916)
Experiment: HTS for Inhibitors of HP1-beta Chromodomain Interactions with Methylated Histone Tails; further: nearly all actives have a fitted effect of over 70% in size
Conditions: AlphaScreen HP1-beta / biotin-H3K9me3 peptide binding; series mostly up to 114 µM
How it was run: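 AlphaScreen: HP1-beta (50 nM) preformed 30 min with biotin-H3(1-18)K9me3 peptide (50 nM) in PBS pH 7.4, 0.01% Tween-20. Compound added for 30 min at RT, then streptavidin donor/nickel chelate acceptor beads (10 ug/mL) for 30 min.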
Potency means the concentration at half of the fitted maximal effect; tags describe the fitted curve by direction and shape.

UniProt P83916, sequence (P83916 whole entry, looked up): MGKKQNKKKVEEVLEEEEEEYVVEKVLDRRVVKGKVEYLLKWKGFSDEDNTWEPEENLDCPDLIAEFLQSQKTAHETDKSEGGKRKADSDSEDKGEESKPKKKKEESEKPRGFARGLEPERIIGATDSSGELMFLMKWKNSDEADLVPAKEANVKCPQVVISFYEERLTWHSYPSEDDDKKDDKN

SMILES	Potency
N#Cc1nc(COc2ccccc2Cl)oc1N1CCCCCC1	inconclusive: 10 µM [inhibitor, full curve]
C=CCNCC(=O)N1N=C(c2ccc3ccccc3c2)CC1c1ccc(OC)cc1 (centres undefined)	inconclusive: 44.7 µM [inhibitor, partial curve, poor fit]
CN(C)c1ccc(C(CNC(=O)COc2ccc(Cl)cc2)N2CCCC2)cc1 (centres undefined)	inactive
CCc1ccc2[nH]c(=O)c(CN(CCN(C)C)C(=S)NCc3ccco3)cc2c1	inactive
COc1ccc(-c2nnc3ccc(SC(C)C)nn23)cc1OC	inactive
CCOC(=O)N/N=C/c1ccc(OCCSc2ccc(Cl)cc2)c(OCC)c1	inconclusive: 17.8 µM [inhibitor, partial curve]
CC[N+]1=CN(c2ccccc2)C(C)=CC1(C)C	inactive
O=C(CSC1=NC(=O)C(c2ccccc2)C(=O)N1)Nc1ccccc1[N+](=O)[O-] (centres undefined)	inconclusive: 79.4 µM [inhibitor, partial curve, poor fit]
CCOc1cc2[nH]c(=O)n(CCCCC(=O)N3CCN(c4ccc(OC)cc4)CC3)c(=O)c2cc1OCC	inactive
CC1CN(C(=O)N2CCC(C(=O)N3CCN(c4ccccc4)CC3)CC2)c2cc(Cl)ccc2O1 (centres undefined)	inconclusive: 39.8 µM [inhibitor, partial curve]
COc1cc(CN2CCN(c3ccccc3F)CC2)c([N+](=O)[O-])cc1OC	inconclusive: 25.1 µM [inhibitor, full curve]
Fc1ccc(CNCc2ccco2)cc1	inconclusive: 56.2 µM [inhibitor, single point]
Cc1ccc(S(=O)(=O)c2[nH]c(-c3ccccc3)nc2SCC(N)=O)cc1	inactive
Cc1ccc(NC(=O)CSc2nnc(CCNC(=O)OC(C)(C)C)o2)c(C)c1	inconclusive: 89.1 µM [inhibitor, single point]
CCOC(=O)C1=C(CN2CCc3ccccc32)NC(=O)NC1c1cccc([N+](=O)[O-])c1 (centres undefined)	inconclusive: 44.7 µM [inhibitor, partial curve, poor fit]
O=C(NCCCN1CCOCC1)c1ccc2c(=O)n(Cc3cccc(Br)c3)c(=S)[nH]c2c1	inconclusive: 50.1 µM [inhibitor, partial curve, poor fit]
CC(=O)Oc1ccc2nonc2c1OC(C)=O	active: 20 µM
CCn1c(N)c(C(=O)N2CCOCC2)sc1=S	inconclusive: 39.8 µM [inhibitor, partial curve]
CC1(C)CC(Nc2ccc(Nc3ccccc3)cc2)CC(C)(C)N1	inconclusive: 44.7 µM [inhibitor, partial curve]
